The target in one experiment is T1, human CD137 on cells (human, UniProt Q07011 24-255).
T1 construct: On CHO-K1 transfectants, Jurkat/CD137 reporter cells and CD3-stimulated primary human T cells; also called human 4-1BB; TNFRSF9
Kind of experiment: flow cytometry, CD8 T cells gated from CD3-stimulated human PBMC, exp 1, n=3 donors. How it is done:
FACS staining and analysis of CD8 T cells: Following 48 h of incubation with or without CD3, human and cynomolgus PBMC were harvested, pooled, recounted and diluted in FACS buffer (PBS +0.5% BSA, 0.05% NaN₃) to a concentration of 5×10⁶ cells/mL. 50 μL (0.25×10⁶ cells) of cell solution was added to a 96-well FACS staining plate (Falcon #351190). Following 10 min of Fc-blocking in RT using Beriglobin (hIgG, 200 μg/mL), cells were washed in FACS buffer and then incubated for 1 h in 4° C. with 100 μL of the biotinylated ALG.APV-210 or negative control. The antibodies were added in a serial dilution starting either at 5 μg/mL titrating down in a 12 step 1/3 dilution down to 0.0003 μg/mL (exp 1) or 1 μg/mL titrating down in a 12 step 1/2 dilution down to 0.0005 μg/mL (exp 2). […] Cells were analysed for ALG.APV-210 binding using flow cytometry by gating on viable, single cells expressing CD3 and CD8. MFI values (FMO subtracted) from 2 independent experiments as well as normalized pooled data from 2 experiments and EC₅₀-values were determined and plotted using GraphPad Prism 7, non-linear regression log (agonist) vs. normalized response—variable slope, n=6 donors/group.
Background: In flow cytometry, cells or beads pass a laser one at a time.

In experiment [1] the target is T2, cynomolgus CD137 on cells (cynomolgus macaque, UniProt A9YYE7 24-254).
T2 construct: whole, on cells; also called cynomolgus macaque CD137; cynomolgus 4-1BB
Description: flow cytometry, CD8 T cells gated from CD3-stimulated cynomolgus PBMC, exp 1, n=3 donors. How it is done:
Isolation and stimulation of cynomolgus PBMC: Cynomolgus PBMC were isolated from 20 mL of cynomolgus monkey blood from 3 different donors, obtained from Silabe, France by density gradient centrifugation using Lympholyte-mammal (Cedarlane labs) according to manufacturer's instructions. Non-tissue treated 96 well plates were pre-coated overnight at 4° C. with 3 μg/mL α-monkey CD3, clone FN-18 (Invitrogen #APS0301). The cynomolgus PBMC were then stimulated identically as the human PBMC described above
FACS staining and analysis of CD8 T cells: Following 48 h of incubation with or without CD3, human and cynomolgus PBMC were harvested, pooled, recounted and diluted in FACS buffer (PBS +0.5% BSA, 0.05% NaN₃) to a concentration of 5×10⁶ cells/mL. 50 μL (0.25×10⁶ cells) of cell solution was added to a 96-well FACS staining plate (Falcon #351190). […] Cells were analysed for ALG.APV-210 binding using flow cytometry by gating on viable, single cells expressing CD3 and CD8. MFI values (FMO subtracted) from 2 independent experiments as well as normalized pooled data from 2 experiments and EC₅₀-values were determined and plotted using GraphPad Prism 7, non-linear regression log (agonist) vs. normalized response—variable slope, n=6 donors/group.

Consider 1 molecule from US20200223933A1 (APTEVO RESERCH AND DEVELOPMENT, published 2020).

T2 sequence (A9YYE7 entry or part of it): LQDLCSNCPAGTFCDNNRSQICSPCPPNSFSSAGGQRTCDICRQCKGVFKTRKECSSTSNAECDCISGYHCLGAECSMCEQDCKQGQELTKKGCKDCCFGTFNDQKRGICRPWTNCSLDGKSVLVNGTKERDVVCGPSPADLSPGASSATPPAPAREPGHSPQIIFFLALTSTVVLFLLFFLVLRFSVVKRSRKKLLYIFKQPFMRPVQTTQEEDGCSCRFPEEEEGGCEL
human CD137 on cells, sequence (Q07011 24-255 limits assumed): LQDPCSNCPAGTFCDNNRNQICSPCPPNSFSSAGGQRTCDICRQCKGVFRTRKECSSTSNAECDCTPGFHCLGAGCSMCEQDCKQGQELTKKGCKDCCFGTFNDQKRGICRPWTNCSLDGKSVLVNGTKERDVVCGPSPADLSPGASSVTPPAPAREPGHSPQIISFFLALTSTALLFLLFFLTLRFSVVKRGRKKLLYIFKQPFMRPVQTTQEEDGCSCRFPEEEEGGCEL

B1: biotinylated ANC017 (other)
chain: [letters of about 100 residues left out]GSGSYFDLWGQGTLVTVSSGGGGSGGGGSGGGGSGGGGSDIQMTQSPSFLSASVGDRVTITCRASQSISSYLNWYQQKPGKAPKLLIYAASSLQSGVPSRFSGSGSGTDFTLTISSLQPEDFATYYCQQYSGYPYTFGQGTKLEIKSSEPKSSDKTHTCPPCPAPEAAGAPSVFLFPPKPKDTLMISRTPEVTCVVVDVSHEDPEVKFNWYVDGVEVHNAKTKPREEQYNSTYRVVSVLTVLHQDWLNGKEYKCAVSNKALPAPIEKTISKAKGQPREPQVYTLPPSRDELTKNQVSLTCLVKGFYPSDIAVEWESNGQPENNYKTTPPVLDSDGSFFLYSKLTVDKSRWQQGNVFSCSVMHEALHNHYTQKSLSLSPGSGGGGSGGGGSGGGGSPS[letters of about 100 residues left out]GSGSYFDLWGQGTLVTVSSGGGGSGGGGSGGGGSGGGGSDIQMTQSPSFLSASVGDRVTITCRASQSISSYLNWYQQKPGKAPKLLIYAASSLQSGVPSRFSGSGSGTDFTLTISSLQPEDFATYYCQQYSGYPYTFGQGTKLEIKRS
modifications: biotinylated (sites not given)
notes: Antibody in the ADAPTIR format with the same framework as ALG.APV-210 (germline CDRs), used as negative control and also biotinylated; The name is printed as ANC017, ANC107 and ACN017; also called ANC107; ACN017
As for B1, the binding result (with human CD137 on cells; in experiment [1]) was “no binding (tested: about 30 nM)” throughout.
